This is an account of results in ChEMBL document CHEMBL4888484, “Replenishing the malaria drug discovery pipeline: Screening and hit evaluation of the MMV Hit Generation Library 1 (HGL1) against asexual blood stage Plasmodium falciparum ,using a nano luciferase reporter read-out” (2022).

The structures appear in SMILES notation. The campaign covered roughly 150,000 compounds. About 540 (0.36%) showed an effect of 50% or more. This is one part of the list.

The assay deals with Plasmodium falciparum. As to the kind of experiment: Primary screen in NF54 nanoGlo assay, in single point, at 2uM, 72h; a lower Z score goes with more inhibition. It counts as functional, Erythrocyte. As to conditions: timepoint 72 hour.
As for `COc1ccc(CNC(=O)N2C[C@@H]3C[C@H](NS(=O)(=O)c4cccs4)[C@H]2C3)cc1`, the % Inhibition (commonly the change of the read-out against control, counted positive when it falls) is recorded as 34% and the Z score is recorded as -3.89.
The like results for `Nc1c(NC(=O)NCCc2ccccc2)c(-c2ccc(Cl)cc2)nn1-c1cc(F)ccc1F` were, in that order, 5% and -0.73.
The like results for `COc1ccc2c(=O)n(Cc3nc(-c4ccccc4)no3)oc2c1` were, in that order, -9% and 1.1.
The like results for `CNc1ncc(C(=O)N2CC[C@]34C(=O)N(Cc5cn(nn5)CCCOc5cccc(c5)[C@H]23)c2ccccc24)cn1` were, in that order, 2% and -0.21.
Take `CCN1CCN([C@H]2CCN(C(=O)Nc3cccc4c3CCN(C)C4=O)C2)CC1`: the “% Inhibition” value is recorded as -10% and the Z score came to 1.29.
Regarding `CC[C@H](O)CNC(=O)c1cc(C)sn1`, the “% Inhibition” value was -19% and the Z score is reported as 3.75.
The matching figures for `COCCCn1cnnc1CNC(=O)[C@H](C)n1cc(Cl)cn1`: -10% and 1.65.
On to `CC(C)n1ncc2c1C[C@@H](NC(=O)c1cccn1C)CC2`, for which the “% Inhibition” value is -11% and the Z score came out at 1.49.
The like results for `Cn1c(N2CCC(C(=O)NCc3ccc(Cl)cc3)CC2)cc(=O)n(C)c1=O` were, in that order, -6% and 1.
The matching figures for `CC1(C)CC(=O)C2(Cc3c(ccc4ccccc34)N(Cc3ccc4c(c3)OCO4)C2)C(=O)C1`: -38% and 4.41.
For the compound `COCCc1nc([C@H]2CCCS(=O)(=O)C2)n(-c2cccc(C)c2C)n1`, the “% Inhibition” value is -15% and the Z score stood at 1.57.
The like results for `CO[C@H]1CCCN(c2ncnc3c2nnn3C)CC1` were, in that order, 1% and -0.1.
In the case of `Cc1ccc2[nH]c3c(=O)n(CC(=O)N4CCN(c5cccc(C(F)(F)F)c5)CC4)cnc3c2c1`, the “% Inhibition” value is on record as -1% and the Z score came to 0.14.
The like results for `COC[C@H](C)OC(=O)c1cc(CC(C)C)n[nH]1` were, in that order, 3% and -0.39.
The like results for `CN(C)c1ccc(C(=O)N(CCC#N)Cc2ccco2)cn1` were, in that order, -9% and 1.54.
Turning to `CC(C)N(C(=O)c1cc2c(F)cccc2s1)c1ncccc1C#N`, the “% Inhibition” value is -6% and the Z score was found to be 0.74.
As for `Cc1nsc(NC(c2ccc(Cl)cc2)C2CN(C)CCO2)c1C#N` (stereo not drawn), the “% Inhibition” value was -7% and the Z score was 1.29.
The like results for `CC(C)(CNC(=O)NC1CC2CC2C1)C1=CCOCC1` (stereo not drawn) were, in that order, 2% and -0.37.
As for `COc1ccc(CCNC(=O)CN2C(=O)C[C@](C)(c3ccc(Br)cc3)C2=O)cc1`, the “% Inhibition” value is given as -4% and the Z score was determined as 0.46.
Regarding `CCC1COCCN1C(=O)C1CC12CCc1ccccc12` (stereo not drawn), the “% Inhibition” value was -4% and the Z score is 0.49.
Regarding `CCc1nc(N)nc(NC[C@H]2CCCN(Cc3ccco3)C2)c1C`, the “% Inhibition” value is on record as -8% and the Z score came out at 0.99.
As for `CC(C)CN1CCC(C(=O)N2CC3CC=CCC3C2)C1` (stereo not drawn), the “% Inhibition” value worked out at 4% and the Z score is -0.41.
The like results for `Cc1ccc(S(=O)(=O)N2CC(C)N(C(=O)N3CCOCC3)C2C)cc1` (stereo not drawn) were, in that order, 36% and -4.9.
In the case of `Cn1ncnc1CCn1ccnc1-c1ccccn1`, the “% Inhibition” value is given as -10% and the Z score is listed as 1.11.
The like results for `CCOC(=O)c1cnn(-c2nc(-c3ccc(OC)cc3)cs2)c1CN1C[C@@H](C)O[C@@H](C)C1` were, in that order, -5% and 0.54.
The matching figures for `CCN1CCC[C@@H]1CNC(=O)c1n[nH]c2c1CCc1c(OC)cccc1-2`: -5% and 0.58.
The like results for `CCN(C1CN(S(=O)(=O)C2CCOC2C)C1)S(=O)(=O)C1CCOC1C` (stereo not drawn) were, in that order, -7% and 1.01.
On to `O=S(=O)(C1COC1)N1CCC=C(F)C1`, for which the “% Inhibition” value is -6% and the Z score amounted to 0.84.
The matching figures for `CO[C@@H]1CCC[C@@H]2CN(C(=O)c3noc(C)c3COc3ccccc3)C[C@@H]21`: 4% and -0.41.
The like results for `CC(C)(C)c1cc(COc2ccc3c(c2)CCC3=O)no1` were, in that order, -7% and 1.3.
The like results for `COc1ccc(CC(=O)NCC(=O)n2nc(C)cc2C)cc1` were, in that order, -3% and 0.32.
For the compound `COc1ccc(N2CCN(C(=O)Cn3ncc4c([nH]c5ccccc54)c3=O)CC2)cc1`, the “% Inhibition” value was -4% and the Z score came out at 0.57.
For the compound `Cc1ccc2c(c1)C1(OCCCO1)C(=O)N2CCc1ccccc1`, the “% Inhibition” value is listed as 0% and the Z score was -0.03.
The matching figures for `CC(C)CNC(=O)c1[nH]cnc1C(=O)NC1CCCCC1`: 12% and -1.39.
The matching figures for `CCCN(CC1CC1)C(=O)CCc1nnc(Cc2cccc(C)c2)o1`: -8% and 1.17.
The like results for `Cn1nncc1CNc1ccnn1Cc1cnn(-c2ccccc2)c1` were, in that order, -6% and 0.54.
For `COCCN1C(=O)C2(CC2)NC12CCC1(CCOCC1)CC2`, the “% Inhibition” value amounted to 3% and the Z score is reported as -0.5.
The matching figures for `CCN1CCCn2nc([C@H]3CCCN(Cc4cccc(OC)n4)C3)cc2C1=O`: -16% and 3.05.
In the case of `COc1ccc(C(=O)NCCc2ccccc2)cc1CN1CC(=O)N2CCC[C@H]2C1=O`, the “% Inhibition” value was -12% and the Z score was 2.28.
The matching figures for `COc1ccc(-c2nc(Nc3nc4ccccc4s3)nc(C)c2C#N)cc1`: -14% and 1.83.
Consider `Clc1cccc(Nc2nnc(Nc3ccccc3)s2)c1Cl`, for which the “% Inhibition” value worked out at 30% and the Z score is given as -3.38.
The matching figures for `C[C@@H](C(=O)O)c1cccc(NC(=O)c2ccnc(C3CC3)n2)c1`: -8% and 1.05.
On to `Cn1nnc(NS(=O)(=O)c2ccc(F)cc2)n1`, for which the “% Inhibition” value is listed as -10% and the Z score came out at 1.95.
The like results for `Cc1ccn(CC(=O)N2CCO[C@@H](CCCc3ccccc3)C2)n1` were, in that order, -2% and 0.2.
The like results for `C1=CC2CC1CC2CCNCc1ccccc1` (stereo not drawn) were, in that order, -9% and 1.2.
The matching figures for `O=C(NCC1CC2C=CC1CC2)C1(CO)CCOCC1` (stereo not drawn): -7% and 1.22.
`C=CCc1c(C)nc(N)nc1N1CCN(Cc2nccn2C)CC1`: the “% Inhibition” value was -8% and the Z score was determined as 1.42.
The like results for `O=C1CCN(S(=O)(=O)c2ccccc2)CCCN(CC2CCCCC2)CCN1` were, in that order, -4% and 0.53.
The like results for `CCN1C[C@H](NC(=O)Nc2cccc(-c3ccccc3C)c2)[C@@H](OC)C1` were, in that order, 2% and -0.35.
The like results for `COc1cnccc1[C@H](C)NC(=O)NCC1(C2CC2)CC1` were, in that order, -17% and 2.46.
For the compound `CC(C)CCO[C@@H](C)C(=O)NCCc1nc2ccc(F)cc2n1C`, the “% Inhibition” value is listed as -13% and the Z score came to 1.62.
The like results for `CC(=O)N1CC[C@@]2(CO)CN(Cc3c[nH]nc3-c3ccc(C)cc3)C[C@H]2C1` were, in that order, -7% and 0.84.
The like results for `CCn1cc(NC(=O)N2CCC[C@H]2CO)cn1` were, in that order, -10% and 1.47.
The matching figures for `O=C(Cc1ccc(O)c(Cl)c1)N1CCO[C@H](c2cccnc2)C1`: 0% and -0.04.
